Recombinant human monoclonal antibodies (heavy:light variable regions). ELISA EC50 on the named antigen, from 10 µg/ml down; IC50 / IC90 against spike pseudovirus on 293T-ACE2 cells, 48 h; lower = stronger. Calls: IC50 above 1,000 ng/ml = non-neutralizing; EC50 above 2,000 ng/ml = non-binder. The source prints 1000 for neutralization that was not reached; it is given as >1000 ng/ml. A few antibodies were first reported in earlier work of the same group.
How the values were obtained:
[1] = target: SARS-CoV-2 Wuhan-Hu-1 spike pseudovirus; assay: pseudovirus neutralization IC50; higher = weaker neutralization
Procedure: (§1)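 Single-round luciferase reporter pseudovirus mixed with antibody dilutions and put on 293T-ACE2 cells for 48 h; signal relative to no-antibody wells, four-parameter fit.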

[2] = target: SARS-CoV-2 Wuhan-Hu-1 spike pseudovirus; assay: pseudovirus neutralization IC90; higher = weaker neutralization
Procedure: as §1

[3] = target: SARS-CoV-2 Wuhan-Hu-1 spike receptor-binding domain; assay: ELISA binding EC50; higher = weaker binding; ELISA of recombinant human antibody on coated antigen, from 10 µg/ml in fourfold dilutions; four-parameter fit.

Binder | pseudovirus neutralization IC50 [1] [µg/mL] | pseudovirus neutralization IC90 [2] [µg/mL] | ELISA binding EC50 [3] [µg/mL]
C1169 (protein) chain 1: QVQMVQSGAEVKKPGGSVKVSCKASGDTFSSHYVHWVRQAPGQGLEWMGIMNPSGGSTTYGQKFQGRVTMTRDTTTSTLSMELSRLRSDDTAVYYCARDSAFIPHMDYGLDVWGQGTTVTVSS chain 2: QSALTQPPSASGSPGQSVTISCTGTSSDVGGYNYVSWYQQNPGKAPKLMIYEVSERPSGVPDRFSGSKSGNTASLTVSGLQVEDEADYYCSSYAASNNLIFGGGTKLTVL | > 1 | > 1 | 0.00249
C1176 (protein) chain 1: QVQLQESGPGLVKPSQTLSLTCTVSGGSMNSGDYYWSWIRQHPGKGLEWIGYIFYSGSTYHNPSLNSRPTISVDTSKNQFSLKLSSVSAADTAVYYCARVPRHYGDNVHHAFDIWGQGTMVTVSS chain 2: QSALTQPASVSGSPGQSITISCTGTSSDVGSYNLVSWYQQHPGKAPKLMIYEDNRRPSGVSNRFSGSKSGNTASLTISGLQAEDEADYYCCTYAGSTSVLFGGGTKLTVL | > 1 | > 1 | 0.00252
C1167 (protein) chain 1: QVQLVESGGGVVQPGRSLRLSCAASGFTFRNYAMHWVRQAPGKGLEWVALILYDGSNEYYADSVKGRFTISRDNSKNTLYLQMNSLRAEDTAVYYCAKTLYSYAYDQYFFDYWGQGTLVTVSS chain 2: IQLTQSPASLSASVGDRVTITCRANQGIRSALAWYQKKPGKAPKLLISEASNLEGGVPSRFSGSGSGTDFTLTISSLQPEDFATYYCQQFNSYPPLTFGGGTKVEIK | > 1 | > 1 | 0.00176
C1171 (protein) chain 1: EVQLVESGGGFVKPGGSLRLSCAASGFSLNDAWMSWVRQAPGKGPEWVGHIKTTIDGGTSDYAASVIGRFTISRDDSKNRLYLHMNSLKTEDTAVYFCIASDLLRYYSYGIDVWGQGTTVTVSS chain 2: DIQMTQSPSTLSASVGDRVTITCRASQSISNWLAWYQQKPGQAPKLLIYKTSNLKSGVPSRFSGSGSGTEFTLTIRSLQPDDFATYYCQQYDSYSWTFGQGTKVEIK | 0.112 | > 1 | 0.00223
C1172 (protein) chain 1: EVQLVESGGGLVQPGGSLRLSCAASGFTFSRNWMSWVRQAPGKGLEWVANINQDGSAKFYLDSVKGRFTISSDHAKNTLFLQMNSLRAEDTALYYCARPRGGWYMGLDSWGQGTLVTVSS chain 2: NFMLTQPHSVSESPGKTVTISCTGSSGSIAVNYVQWYQQRPGSAPTTVIYEDNQRPSGVPDRFSGSIDSSSNSASLTISGLKTEDEADYYCQTYDGSNHWVFGGGTKLTVL | 0.0663 | > 1 | 0.00238
C1419 (protein) chain 1: QVQLQESGPGLVKPSQTLSLTCTVSGGSISGGGYYWTWIRQHPGKGLEWIGHIYYSENTYYNPSLKSRVSISVDTSKNQFSLKLSSVTAADTAVYYCASGRWLPEFDYWGQGTLVTVSS chain 2: EIVMTQSPATLSVSPGERATLSCRASQSVSSNLAWYQQKPGQAPRLLIYGASTRATGIPARFSGSGSGTEFTLTISSLQSEDFAVYYCQQYNNWPRGFTFGPGTKVDIK | > 1 | > 1 | 0.00285
C1422 (protein) chain 1: QVQLVESGGGVVQPGRSLRLSCAASGFTFSSYGMNWVRQAPGKGLEWVALISYDGSNKYYADSVKGRFTISRDNSKNTLYLQMNSLRAEDTAVYYCAKGGLYSSSSLDDYWGQGTLVTVSS chain 2: DIQMTQSPSSLSASVGDRVTITCQASQDISNYLNWYQQKPGKAPKLLIYDASNLETGVPSRFSGSGSGTDFTFTISSLQPEDIATYYCQQYDNLLLTFGGGTKVEIK | 0.95 | > 1 | 0.00342
C1424 (protein) chain 1: QVQLVESGGGVVQPGRSLRLSCAASGFTFSHYGMHWVRQAPGKGLEWVAVILYDGSDKYYADSVKGRFTISRDNPKNTLYLQMNSLRAEDTAVYYCAKQAGPYCSGGNCYGGTLDYWGQGSLVTVSS chain 2: DIQMTQSPSSLSASVGDRVTITCQASQDISNYLNWYQQKPGQAPKLLIYDASNLETGVPSRFSGSGSGTDFTFTISSLQPDDIATYYCQQYDNLPPAFGPGTKVDIK | > 1 | > 1 | 0.00315
C1177 (protein) chain 1: QVQLVESGGGVVQPGRSLRLSCSASGFTFRHYGMHWVRQAPGKGLEWVAVTSYDGSNQYYSDSVKGRITISRDNSKNTLYLQMNSLRVEDTAMYYCAKGGYSYAYPETFFDYWGQGTLVTVSS chain 2: SYELTQPPSVSVAPGQTARITCEENNIGSKSVHWYQQTPGQAPVLVVSDNSDRPSGIPDRFSGSNSGNTATLTIGRVEAGDEADYYCQVWDSGSDHPGVFGGGTKLTVL | 0.904 | > 1 | 0.00377
C1173 (protein) chain 1: QLQLQESGPGLVKPSETLSLTCTVSGGSISSNSYYWGWIRQPPGKGLEWIGSIYYSGSTYYNPSVMSRVTISVDTSKNQFSLNLRSVSAADTAIYYCARRRRWGFGDGFDIWGHGTMVTVSS chain 2: QSALTQPRSVSGSPGQSVTIACTGTSSDVGGYDYVSWYQQHPGKAPKLMIYDVNKRPSGVPDRFSGSKSGNTASLTISGLQTEDEADYYCCSYAGSYTTLFGGGTKLTVL | > 1 | > 1 | 0.00384
C1420 (protein) chain 1: QLQLQESGPGLVKPSETLSLTCTVSGGSISRSSYYWGWIRQPPGKGLEWIGSMYYSGSTYYNPSLKSRVTISVDTSKNQFSLKLSSVTAADTAVYYCARSLLRWNGAFDIWGQGTMVTVSS chain 2: SYELTQPPSVSVAPGKTARITCGVNNIGSYSVHWYQQNPGQAPVLVIYYDSDRPSGIPERFSGSNSGNTATLTISRVEAGDEADYYCQVWDNSSDHPYVFGTGTKVTVL | > 1 | > 1 | 0.00342
C2420 (protein) chain 1: QVQLQESGPGLVKPSETLSLSCTVSGGSISTYFWTWIRQPPGKGLEWIGYIYYSGSTNYSPSLQSRVTILVDTSKNQFSLKLTSVTAADTAVYYCARGTVIKVGRTSYSYGMDVWGQGTTVTVSS chain 2: SYELTQPPSVSVAPGQTARITCGGNNIGSYSVHWYQQKPGQAPVLVIFYDSDRPSGIPERFSGSNSGNTATLTISRVEAGDEADYYCQVWDTNSDHLVVFGGGTKLTVL | > 1 | > 1 | 0.00219
C1421 (protein) chain 1: QVQLQQWGAGLLKPSETLSLTCAVYGGSFSGYYWSWIRQPPGKGLEWIGEINHSGSTDYNPSLKSRVTISVDTSKNQFSLKVSSVTAADTAVYYCARDDGGFRELFLDYWGQGTLVTVSS chain 2: QSVLTQPPSASGTPGQRVTISCSGSSSNIGTNYVYWYQQLPGTAPKLLIYRNNQRPSGVPDRFSGSKSGTSASLAISGLRSEDEADYYCAAWDDSLRGVFGGGTKLTVL | 0.507 | > 1 | 0.0033
C2418 (protein) chain 1: QVQLQESGPGLVKPSETLSLTCTVSGGSVSSDNYYWSWIRQSPGKGLEWIGYIFYSGSTNYNPSLKSRVTMSVDTSKNQFSLKLNSVTAADTAVYFCARWWRVLPFSSFDYWGQGSLVTVSS chain 2: QSALTQPASVSGSPGQSITISCTGTSSDIGSYNLVSWYQQHPGKAPKLIIYEGSTRPSGVSDRFSGSKSGNTASLTISGLQAEDEAVYYCCSYMGRSMFEVFGGGTKLTVL | > 1 | > 1 | 0.00149
C1178 (protein) chain 1: QVQLVQSGAEVKKPGASVKVSCKASGSTFTSHYMHWVRQAPGQGLEWMGIINPSGGSTRYAQKFQGRVSLTSDTSTSTVHMELSSLRSEDTAVYYCARDAGFIVVVTGGFDYWGQGTLVTVSS chain 2: QSALTQPASVSGSPGQSITISCTGTSSDIGGYNYVSWYQQHPGKGPKLMIYDVSNRPSGLSNRFSGSKSGNTASLTISGLQAEDEADYYCSSYTSSTTVVFGGGTKVTVL | > 1 | > 1 | 0.00833
C1170 (protein) chain 1: QVQLVQSGAEVKKPGASVKVSCKASGYTFSSYFIHWVRQAPGQGLEWMGIINPGGASRSSAQKFQGRVTMTSDTSTSTVYMELSSLRSEDTAVYYCAREHGGNSYFDQWGQGTLVTVSS chain 2: DIQLTQSPSFLSASVGDRVTITCRASQGISGYLAWYQQKPGEAPKVLIYAASTLQSGVPSRFSGSGSGTEFTLTISSLQPEDFATYYCQHLNNYPVAFGQGTKVEIK | 0.0238 | 0.0644 | 0.00213
